Binding data for one molecule are collected here from paper PMC11584650, “An inhibitory segment within G-patch activators tunes Prp43-ATPase activity during ribosome assembly” (Nature Communications, 2024).

Amino acid sequences for entries named in this document (tags omitted).
UniProt P53131: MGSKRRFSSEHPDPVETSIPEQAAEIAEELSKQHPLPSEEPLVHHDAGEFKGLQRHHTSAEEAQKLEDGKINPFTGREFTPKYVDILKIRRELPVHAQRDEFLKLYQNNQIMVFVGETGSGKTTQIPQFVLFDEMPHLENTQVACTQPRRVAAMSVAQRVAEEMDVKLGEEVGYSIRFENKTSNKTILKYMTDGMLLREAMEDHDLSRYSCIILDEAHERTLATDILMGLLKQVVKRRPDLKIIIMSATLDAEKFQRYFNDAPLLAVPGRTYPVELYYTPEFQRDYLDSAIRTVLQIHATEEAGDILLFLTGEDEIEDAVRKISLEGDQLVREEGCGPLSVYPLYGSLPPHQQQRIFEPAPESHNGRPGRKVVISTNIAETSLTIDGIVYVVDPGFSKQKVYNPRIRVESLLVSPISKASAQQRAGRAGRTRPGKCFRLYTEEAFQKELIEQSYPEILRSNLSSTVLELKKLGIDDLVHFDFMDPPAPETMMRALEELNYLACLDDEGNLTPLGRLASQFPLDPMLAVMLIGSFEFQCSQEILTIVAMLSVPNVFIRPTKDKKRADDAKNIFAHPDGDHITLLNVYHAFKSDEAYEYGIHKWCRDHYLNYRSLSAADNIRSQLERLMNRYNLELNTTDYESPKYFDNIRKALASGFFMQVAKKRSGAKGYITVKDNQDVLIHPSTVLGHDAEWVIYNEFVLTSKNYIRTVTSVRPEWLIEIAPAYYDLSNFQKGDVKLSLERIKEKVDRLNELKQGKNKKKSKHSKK

Results are given in words; binding and its absence hold for the method and conditions named. Some binding calls cover weakened binding; strength is not graded here. Tags and fused reporters may be left off the sequences shown.

The target of this test is Prp43 (yeast two-hybrid fusion) (S. cerevisiae) (UniProt P53131). As to the kind of experiment: two-hybrid; as the two-hybrid in NMY32, but in a modified NMY32 strain in which Pxr1^D at the genomic locus is replaced by CoV2^C (Pxr1^GM-CoV2^C strain).

B1: Pxr1^F126A (yeast two-hybrid fusion) (protein, UniProt P53335 1-271)
chain: MGLAATRTKQRFGLDPRNTAWSNDTSRFGHQFLEKFGWKPGMGLGLSPMNSNTSHIKVSIKDDNVGLGAKLKRKDKKDEFDNGECAGLDVFQRILGRLNGKESKISEELDTQRKQKIIDGKWGIHAVKGEVLASTWDPKTHKLRNYSNAKKRKREGDDSEDEDDDDKEDKDSDKKKHKKHKKHKKDKKKDKKDKKEHKKHKKEEKRLKKEKRAEKTKETKKTSKLKSSESASNIPDAVNTRLSVRSKWIKQKRAALMDSKALNEIFMITND
For the molecule B1, the binding entry was “binds”.
